Data published in the supplement of paper PMC10126150.
Values marked as one replicate rest on one cluster of the flow cell; about a third of the high ones do not repeat.

Test system: ATP
Experiment: switch fluorescence ratio, 500 uM ATP over buffer (Cy3 cluster intensity, sum of 5 cycles each) (fold (ratio)); higher = stronger signal-on switching upon ATP binding; sequences stand for … in TCGTCGGCAGCGTCAGATGTGTATAAGAGACAGTTTTTTTTTTTTTTTTTTTTTTTTT…TC
Conditions: aptamer strand: ATP DNA aptamer (quencher-CACCTGGGGGAGTATTGCGGAGGAAGG + anchor), 100 nM annealed; ATP concentration: 500 uM; one replicate
Method in brief: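 Cy3-labelled switching-strand clusters on a modified Illumina MiSeq flow-cell were annealed to 100 nM quencher-labelled ATP aptamer, imaged in selection buffer, then imaged after 15 min with 500 uM ATP at 22 °C. Five buffer/ATP cycles ran, with NaOH stripping and re-annealing between them. The fluorescence ratio is summed target-cycle over summed buffer-cycle Cy3 intensity per cluster, averaged per switch-domain sequence. Clusters outside 100-1000 RFU were excluded.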
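Also: ATP exposure 15 min at 22 °C before imaging.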

Sequence	switch fluorescence ratio
ATTTGGCGCA	1.05
GGGATTAAA	0.974
GTTTGGAAAG	0.994
GTGCGCGTTG	1.03
GCCCGATAGG	0.974
AGTCCATTCG	0.993
TTGACAGTGG	1.01
TTAATGTCTG	0.952
CAGAATTCTC	0.994
AAAGGGATTA	1
TAATGACGTG	0.958
AAGAGAATGA	1.02
GAGGGCCTAA	1.02
TTTAGAAGAT	0.969
TGCCCGATTG	1.02
AACTTAAAGG	1.02
TATAGGAAAG	1.01
TAGATAACGG	1.05
GCAGACTTAA	1.06
CTTAAACTCT	1.03
CCGCGGAATC	1.19
AGTTCTTCAT	0.996
AAACATGAGC	0.986
ATAAAACGTA	1.16
GCCGTGCCTA	1.01
TGGTCCCTCA	0.999

Sequence	switch fluorescence ratio
CATTCTTGGC	0.981
AACGGATATA	1.05
TGAGCGGCCG	1
CTGTGCAAGG	1.6
TTGTCGGGGG	1.03
TTAGAATAGG	1
GGCCGGCACA	0.986
TGGACTGATG	0.943
CTCTCTATAT	1.05
TTGGCGCATT	1.05
TATGGGAGAA	0.976
GGTTCTTTTG	0.947
CGTTTGAAAT	0.956
TGTTAGCATA	1.03
AGCTACGCAT	1.91
GCCTTATGTG	1.01
GACTTTAGTG	0.983
TAGTTTCGCT	1.02
GCTTCTAAAT	0.991
GCGAATTGTA	0.962
GGGTCTCTTA	1.04
TTCATAACAG	0.983
GTTAGGATCT	0.961
CTGGAGATCC	1.07
GCTATTGACT	1.03
GCATATAATT	0.998

Sequence	switch fluorescence ratio
ACGCGCGGGG	1.05
TAGCGCATGT	0.986
AGGCGAAGTT	1.04
GGGGTCAG	0.989
GGCTTCATTC	1.05
AATTACGGGG	1.01
TTGCAATAGA	1.04
CTACAGCGCG	0.964
AGCTTCTAG	1.04
ATGTTAACCA	1.04
CTAGGAACGT	0.995
AGCTGGGCAG	1.08
CAATTGGGCC	0.991
AGGTTATGGC	1.08
CGCCTGCCGT	1
TTATCCTTCT	1.16
GGTTGGTGA	0.971
CGGTGAGTCT	0.984
GGGGCCGGAA	0.998
CGCAAGTCCT	1.49
AGTCTGCCAC	1.03
CCTGGGGCAT	1.61
GGTTGATCAA	0.924
AGACTTTTCC	1.05
TTCATTGAGG	0.995
TAGCTACAAA	1.09

Sequence	switch fluorescence ratio
AAAACGAAAC	0.976
ACGTCACGAT	1.39
AGGAGGTCTC	1.02
CGAAAAGGAC	0.944
TGAGTGTTTG	0.959
CATGCAGAAG	1.05
TTAGCGAAAT	1.07
TGTGCGGAG	1.01
TGGAGAATTC	1.03
AGGTGTCTCG	1.02
GATGGTGAGG	0.996
TTGTGGGTGC	0.958
GGATCAGGG	1.03
GCCGAAGAG	0.992
ATGAGGGTGA	1.03
TCCATGGCGA	1.13
CAAATTTGCA	1.02
AGAAGAAGTT	0.992
CACTAAGTGA	0.982
GCGGTTTTAG	1.04
TTGATGTTTT	0.957
TGAATTCACG	1.04
TATACTTTGA	1.01
GGGGCAGAGC	0.999
TTTGACTTTG	1.04
TGGCGTACCC	0.994

Sequence	switch fluorescence ratio
TGTCAGATGC	0.977
TTGATTGAAC	0.975
AAAGACATAG	1
TCTTGAGACT	1.04
ATCGGATACG	0.995
TTAAAAGTA	0.981
TTTTAGCTAC	2.07
GAGAAATCGT	1.02
TGTCGAAATT	0.998
CCTAGTCATC	1.19
GAGGGGATGG	1.06
TGTCCATATT	0.984
CAATGATTAT	0.967
GGGTCAAATC	0.964
TTGTTGGAG	0.978
GACCACACCC	1.35
TGCTGAGGTC	0.949
ATCATGCATA	1.04
GTTGTCCCTC	0.957
CCGAGCAGGA	2.9
CTTTTACCTC	1.04
AATATATAAC	0.985
AGGCGATGCT	1.06
AGGTGAGTCC	0.973
GGTGCTCAGG	1.08
CTTAATGTTG	0.976

Sequence	switch fluorescence ratio
TAAAGGCGGA	0.978
ACTACGCGGG	1.08
AGTGAACACT	1.01
AGTCTGGGCG	0.993
TAGTTGGGTC	1.03
GGAGCGCCA	0.991
AGGTTGTTCG	1.01
CAGACAATAA	1.44
TGCCGGCATA	1.01
TGAGCCTAC	0.991
AAATACTGCG	1.04
CCTATTCTG	0.979
CGCTAAGTGG	1.07
AATCGGCCCT	1.04
ATAGTAACGA	1.01
TTCGAGGGGA	0.964
CAATTAGAAT	1.01
AGTGGCGCGC	0.98
GGGTCTTGAG	1.02
GTTATCATTG	0.998
CTTTGCAAAA	1.15
GGTCCTAAAA	0.997
CGTAACGTGC	1.05
GGCGATCAAG	0.983
ACTTACCTT	1.22
CAAGGTACG	1.03

Sequence	switch fluorescence ratio
TGGCAGTATG	0.95
TAAATAGGGG	1
TTACCGCTGT	1.12
CGTCTCCTGC	1.04
TCTAAGTGCG	1.05
AGGCCTTATT	1.05
GCCAATTCGG	0.916
TCCTGCCAC	2.01
CAGGAGCTAG	1.53
AGAATTATGA	0.985
AAGAAAAGAT	1.02
CTCTAATGCA	0.971
GGGATCTGCA	0.988
TAGGCGTTCC	1.34
AACGTAGCG	1.06
AAGGCATCC	1.01
CTAAGAAGAG	0.985
TGGGACGT	1.01
AGTTATCCA	0.993
CGTGTTACAA	1.01
TTGCCGGGAT	1.03
CATTTGGTG	0.97
CGGGATAACC	1.04
ATAGAGTGT	0.991
GCGCCATGGT	1.06
CACCAAAGTC	0.928

Sequence	switch fluorescence ratio
CTTTAGTCGA	1.02
TGTTAGTTA	0.968
TCTTGGATG	0.974
TGCTGAGTCT	0.986
GTGAGGTTGA	1.03
AGTGTGCGAT	0.981
CGGTATACGG	1.04
GGTGTACACG	0.998
GAAGTACATC	1.22
ACAGGTTCCG	0.989
GCGCAACGCT	1.05
CATTCAGTGG	0.961
ATCGGGATGC	1.37
TGGGGGTCCG	0.996
GCGGCACGAG	1.02
TCGTTGACTG	1.05
CTAGGTATTC	1.02
CCCGCATTTA	5.45
CTGGGATTGT	0.992
